# Some of the results follow.
# B1: PX9961V-pdi-562-26-562 (Parabacteroides distasonis) (protein)
# chain: EIFSEITTDNYYQNSNNIYAALVNNYAKAFSTGWSDARYFLQEVTADQLMIPTRGKHGYNGGEYVRLHEHKWTVEENFVYNGWAAPFQGIALCNNTLSDFENLDFSTFKLTEETKNEYIAELRALRVWNYMFLIDFFRHVPIVTDIEEVKAQSTPLEVFNFMESELLAILPDLPKNRGVSRFDQAGVASILVRLYLNAEKWIGISKYDECEQMAQAILDGKYGEYSIDPDYRGPFRSGINGYRSKENIMEFAIKKNYFEASWLYNMWMHYQDRYSLDNDWQGWNGGNLAPSRDLYGNLYQDKLGMPFEKFPDGDIRKKAFRVISNDGDYEGFFLMGTQYKFDYEKGYGFTDEVITGTEEYNGKPLVYVDQVGRFSEGETGLAKGSHVIYGEENTGYRLIKFPWLPQSKDLFQMNSIPEIRLAEIYYSLAECKYRSGDKIGAARLLDVVRKRYYKAEDWSKFSYESNISKLTDDEFVDELGREFIGERHRRIDLIRWNRFSEGAWWDKTPDATNQDVFPIPYRALNANPLLKQTTAGF
# Legend:
# Experiment in all cases: glycan array binding signal (z-score within array); higher = stronger binding
# Conditions in all cases: glycan notation: IUPAC condensed, linker removed
# [1] = molecular target: Gal(b1-4)GlcNAc(b1-3)Gal(b1-4)GlcNAc(b1-6)[Gal(b1-3)]GalNAc
# Outline: (§1)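 The Consortium for Functional Glycomics database supplied 3228 glycan arrays, of which those lacking an available protein sequence were dropped. The binding signal, a within-array Z-score, was averaged across arrays of the same protein sequence and across linkers. Negative scores can be read as non-binding.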
# [2] = molecular target: Gal(b1-4)GlcNAc(b1-3)Gal(b1-4)[Fuc(a1-3)]GlcNAc(b1-3)Gal(b1-4)[Fuc(a1-3)]GlcNAc
# Outline: as §1
# [3] = molecular target: Gal(b1-4)GlcNAc(b1-3)GalNAc
# Outline: as §1
# [4] = molecular target: Gal(b1-4)GlcNAc(b1-3)[Fuc(a1-3)GlcNAc(b1-6)]Gal(b1-4)Glc
# Outline: as §1
# [5] = molecular target: Gal(b1-4)GlcNAc(b1-3)[Gal(b1-4)GlcNAc(b1-6)]Gal(b1-4)GlcNAc
# Outline: as §1
# [6] = molecular target: Gal(b1-4)GlcNAc(b1-3)[GlcNAc(b1-6)]Gal(b1-4)GlcNAc
# Outline: as §1
# [7] = molecular target: Gal(b1-4)GlcNAc(b1-6)Gal(b1-4)GlcNAc
# Outline: as §1
# [8] = molecular target: Gal(b1-4)GlcNAc(b1-6)GalNAc
# Outline: as §1
# [9] = molecular target: Gal(b1-4)GlcNAc(b1-6)[Gal(b1-3)]GalNAc
# Outline: as §1
# [10] = molecular target: Gal(b1-4)GlcNAc(b1-6)[Gal(b1-4)GlcNAc(b1-3)]GalNAc
# Outline: as §1
# [11] = molecular target: Gal(b1-4)GlcNAc6P
# Outline: as §1
# [12] = molecular target: Gal(b1-6)Gal
# Outline: as §1
# [13] = molecular target: Gal3S(b1-3)GalNAc
# Outline: as §1
# [14] = molecular target: Gal3S(b1-3)GlcNAc
# Outline: as §1
# [15] = molecular target: Gal3S(b1-3)[Fuc(a1-4)]GlcNAc
# Outline: as §1
# [16] = molecular target: Gal3S(b1-4)Glc
# Outline: as §1
# [17] = molecular target: Gal3S(b1-4)Glc6S
# Outline: as §1
# [18] = molecular target: Gal3S(b1-4)GlcNAc
# Outline: as §1
# [19] = molecular target: Gal3S(b1-4)[Fuc(a1-3)]Glc6S
# Outline: as §1
# [20] = molecular target: Gal3S(b1-4)[Fuc(a1-3)]GlcNAc
# Outline: as §1
# [21] = molecular target: Gal3S(b1-4)[Fuc(a1-3)]GlcNAc6S
# Outline: as §1
# [22] = molecular target: Gal3S4S(b1-4)GlcNAc
# Outline: as §1
# [23] = molecular target: Gal3S6S(b1-4)GlcNAc
# Outline: as §1
# [24] = molecular target: Gal3S6S(b1-4)GlcNAc6S
# Outline: as §1
# [25] = molecular target: Gal4S(b1-4)GlcNAc
# Outline: as §1
# [26] = molecular target: Gal4S6S(b1-4)GlcNAc
# Outline: as §1
# [27] = molecular target: Gal6P(b1-4)GlcNAc
# Outline: as §1
# [28] = molecular target: Gal6S(b1-3)GlcNAc
# Outline: as §1
# [29] = molecular target: Gal6S(b1-3)GlcNAc6S
# Outline: as §1
# [30] = molecular target: Gal6S(b1-4)Glc
# Outline: as §1
# [31] = molecular target: Gal6S(b1-4)Glc6S
# Outline: as §1
# [32] = molecular target: Gal6S(b1-4)GlcNAc
# Outline: as §1
# [33] = molecular target: Gal6S(b1-4)GlcNAc6S
# Outline: as §1
# [34] = molecular target: GalNAc(a1-3)Gal
# Outline: as §1
# [35] = molecular target: GalNAc(a1-3)GalNAc
# Outline: as §1
# [36] = molecular target: GalNAc(a1-3)GalNAc(b1-3)Gal(a1-4)Gal(b1-4)Glc
# Outline: as §1
# [37] = molecular target: GalNAc(a1-3)GalNAc(b1-3)Gal(a1-4)Gal(b1-4)GlcNAc
# Outline: as §1
# [38] = molecular target: GalNAc(b1-3)Gal
# Outline: as §1
# [39] = molecular target: GalNAc(b1-3)Gal(a1-4)Gal(b1-4)GlcNAc
# Outline: as §1
# [40] = molecular target: GalNAc(b1-3)Gal(a1-4)Gal(b1-4)GlcNAc(b1-3)Gal(b1-4)Glc
# Outline: as §1
# [41] = molecular target: GalNAc(b1-3)Gal(a1-6)Gal(b1-4)Glc
# Outline: as §1
# [42] = molecular target: GalNAc(b1-3)GalNAc
# Outline: as §1
# [43] = molecular target: GalNAc(b1-3)GlcNAc
# Outline: as §1
# [44] = molecular target: GalNAc(b1-4)Gal(b1-4)Glc
# Outline: as §1
# [45] = molecular target: GalNAc(b1-4)GlcNAc
# Outline: as §1
# [46] = molecular target: GalNAc(b1-4)GlcNAc(b1-2)Man
# Outline: as §1
# [47] = molecular target: GalNAc(b1-4)GlcNAc(b1-2)Man(a1-3)[GalNAc(b1-4)GlcNAc(b1-2)Man(a1-6)]Man(b1-4)GlcNAc(b1-4)GlcNAc
# Outline: as §1
# [48] = molecular target: GalNAc(b1-4)GlcNAc(b1-3)GalNAc(b1-4)GlcNAc
# Outline: as §1
# [49] = molecular target: GalNAc(b1-4)GlcNAc6S
# Outline: as §1
# [50] = molecular target: GalNAc(b1-6)GalNAc
# Outline: as §1
# [51] = molecular target: GalNAc3S(b1-4)GlcNAc
# Outline: as §1
# [52] = molecular target: GalNAc3S(b1-4)GlcNAc3S
# Outline: as §1
# [53] = molecular target: GalNAc3S(b1-4)[Fuc(a1-3)]GlcNAc
# Outline: as §1
# [54] = molecular target: GalNAc4S6S(b1-4)GlcNAc
# Outline: as §1
# [55] = molecular target: GalNAc6S(b1-4)GlcNAc
# Outline: as §1
# [56] = molecular target: Glc(a1-4)Glc
# Outline: as §1
# [57] = molecular target: Glc(a1-4)Glc(a1-4)Glc(a1-4)Glc
# Outline: as §1
# [58] = molecular target: Glc(a1-6)Glc(a1-6)Glc
# Outline: as §1
# [59] = molecular target: Glc(a1-6)Glc(a1-6)Glc(a1-6)Glc
# Outline: as §1
# [60] = molecular target: Glc(b1-4)Glc
# Outline: as §1
# [61] = molecular target: Glc(b1-6)Glc
# Outline: as §1
# [62] = molecular target: GlcA(b1-3)Gal
# Outline: as §1
# [63] = molecular target: GlcA(b1-3)GlcNAc
# Outline: as §1
# [64] = molecular target: GlcA(b1-6)Gal
# Outline: as §1
# [65] = molecular target: GlcA3S(b1-3)Gal(b1-4)GlcNAc(b1-2)Man
# Outline: as §1
# [66] = molecular target: GlcA3S(b1-3)Gal(b1-4)GlcNAc(b1-3)Gal(b1-4)Glc
# Outline: as §1
# [67] = molecular target: GlcNAc(a1-3)Gal(b1-4)GlcNAc
# Outline: as §1
# [68] = molecular target: GlcNAc(a1-4)Gal(b1-3)GlcNAc
# Outline: as §1
# [69] = molecular target: GlcNAc(a1-4)Gal(b1-4)GalNAc
# Outline: as §1
# [70] = molecular target: GlcNAc(a1-4)Gal(b1-4)GlcNAc
# Outline: as §1
# [71] = molecular target: GlcNAc(a1-4)Gal(b1-4)GlcNAc(b1-3)Gal(b1-4)Glc
# Outline: as §1
# [72] = molecular target: GlcNAc(a1-4)Gal(b1-4)GlcNAc(b1-3)Gal(b1-4)GlcNAc
# Outline: as §1
# [73] = molecular target: GlcNAc(a1-4)Gal(b1-4)GlcNAc(b1-3)Gal(b1-4)GlcNAc(b1-3)Gal(b1-4)GlcNAc
# Outline: as §1
# [74] = molecular target: GlcNAc(a1-4)Gal(b1-4)GlcNAc(b1-3)Gal(b1-4)[Fuc(a1-3)]GlcNAc(b1-3)Gal(b1-4)[Fuc(a1-3)]GlcNAc
# Outline: as §1
# [75] = molecular target: GlcNAc(a1-6)Gal(b1-4)GlcNAc
# Outline: as §1
binder,measurement,setting,value
B1,glycan array binding signal (z-score),[1],0.408
same,glycan array binding signal (z-score),[2],-0.412
same,glycan array binding signal (z-score),[3],-0.478
same,glycan array binding signal (z-score),[4],-0.429
same,glycan array binding signal (z-score),[5],0.575
same,glycan array binding signal (z-score),[6],-0.498
same,glycan array binding signal (z-score),[7],-0.386
same,glycan array binding signal (z-score),[8],-0.247
same,glycan array binding signal (z-score),[9],0.458
same,glycan array binding signal (z-score),[10],-0.135
same,glycan array binding signal (z-score),[11],-0.526
same,glycan array binding signal (z-score),[12],0.78
same,glycan array binding signal (z-score),[13],-0.29
same,glycan array binding signal (z-score),[14],-0.799
same,glycan array binding signal (z-score),[15],-0.552
same,glycan array binding signal (z-score),[16],-0.152
same,glycan array binding signal (z-score),[17],-0.546
same,glycan array binding signal (z-score),[18],-0.447
same,glycan array binding signal (z-score),[19],1.67
same,glycan array binding signal (z-score),[20],-0.385
same,glycan array binding signal (z-score),[21],-0.111
same,glycan array binding signal (z-score),[22],0.293
same,glycan array binding signal (z-score),[23],-0.101
same,glycan array binding signal (z-score),[24],-0.287
same,glycan array binding signal (z-score),[25],-0.475
same,glycan array binding signal (z-score),[26],-0.125
same,glycan array binding signal (z-score),[27],-0.734
same,glycan array binding signal (z-score),[28],0.186
same,glycan array binding signal (z-score),[29],-0.707
same,glycan array binding signal (z-score),[30],-0.17
same,glycan array binding signal (z-score),[31],-0.292
same,glycan array binding signal (z-score),[32],-0.043
same,glycan array binding signal (z-score),[33],0.123
same,glycan array binding signal (z-score),[34],-0.475
same,glycan array binding signal (z-score),[35],-0.16
same,glycan array binding signal (z-score),[36],-0.432
same,glycan array binding signal (z-score),[37],-0.239
same,glycan array binding signal (z-score),[38],-0.142
same,glycan array binding signal (z-score),[39],-0.339
same,glycan array binding signal (z-score),[40],0.281
same,glycan array binding signal (z-score),[41],-0.107
same,glycan array binding signal (z-score),[42],-0.22
same,glycan array binding signal (z-score),[43],0.501
same,glycan array binding signal (z-score),[44],-0.152
same,glycan array binding signal (z-score),[45],-0.213
same,glycan array binding signal (z-score),[46],-0.576
same,glycan array binding signal (z-score),[47],0.196
same,glycan array binding signal (z-score),[48],0.115
same,glycan array binding signal (z-score),[49],1.09
same,glycan array binding signal (z-score),[50],-0.649
same,glycan array binding signal (z-score),[51],-0.625
same,glycan array binding signal (z-score),[52],-0.598
same,glycan array binding signal (z-score),[53],-0.475
same,glycan array binding signal (z-score),[54],-0.477
same,glycan array binding signal (z-score),[55],0.025
same,glycan array binding signal (z-score),[56],-0.413
same,glycan array binding signal (z-score),[57],-0.28
same,glycan array binding signal (z-score),[58],-0.458
same,glycan array binding signal (z-score),[59],0.166
same,glycan array binding signal (z-score),[60],-0.298
same,glycan array binding signal (z-score),[61],-0.365
same,glycan array binding signal (z-score),[62],-0.574
same,glycan array binding signal (z-score),[63],-0.168
same,glycan array binding signal (z-score),[64],2.3
same,glycan array binding signal (z-score),[65],-0.629
same,glycan array binding signal (z-score),[66],0.386
same,glycan array binding signal (z-score),[67],-0.597
same,glycan array binding signal (z-score),[68],-0.325
same,glycan array binding signal (z-score),[69],-0.013
same,glycan array binding signal (z-score),[70],-0.336
same,glycan array binding signal (z-score),[71],-0.678
same,glycan array binding signal (z-score),[72],-0.638
same,glycan array binding signal (z-score),[73],-0.075
same,glycan array binding signal (z-score),[74],-0.027
same,glycan array binding signal (z-score),[75],0.024
